Data taken from US20240043560A1.

Molecular target: full-length human CD28 (hCD28, amino acids M1 to S220, accession #P10747) on engineered reporter T-cells (human) (UniProt P10747)
Assay: cell-based or functional assay

Fold induction, luciferase activity in engineered reporter T-cells with HEK293/hCD20, absence of TCR stimulation: 2.8 fold
Fold induction, luciferase activity in engineered reporter T-cells with HEK293/hCD20, presence of TCR stimulation: 3.26 fold
Fold induction, luciferase activity in engineered reporter T-cells with HEK293/hCD20/hPSMA, absence of TCR stimulation: 3.95 fold
Fold induction, luciferase activity in engineered reporter T-cells with HEK293/hCD20/hPSMA, presence of TCR stimulation: 3.15 fold
B1: mAb14216P2 (antibody, from a related filing, V domains shown, part only)
VH: EVQLVESGGGLVQPGGSLRLSCAASGFTFSRNNMHWVRQAPGKGLEYVSGISSNGGRTYYADSVKGRFTISRDNSKNTLYLQMGGLRAADMAVYFCTRDDELLSFDYWGQGTLVTVSS
VL: [sequence of about 100 residues omitted]
